# Over roughly 33,000 sequences, “E-score (-0.5 to 0.5)” has its median near -0.012; the highest 2% begin near 0.29. The list shows a part of the results.
# Target: T1, Ybr033w (UniProt P38073)
# T1 sequence: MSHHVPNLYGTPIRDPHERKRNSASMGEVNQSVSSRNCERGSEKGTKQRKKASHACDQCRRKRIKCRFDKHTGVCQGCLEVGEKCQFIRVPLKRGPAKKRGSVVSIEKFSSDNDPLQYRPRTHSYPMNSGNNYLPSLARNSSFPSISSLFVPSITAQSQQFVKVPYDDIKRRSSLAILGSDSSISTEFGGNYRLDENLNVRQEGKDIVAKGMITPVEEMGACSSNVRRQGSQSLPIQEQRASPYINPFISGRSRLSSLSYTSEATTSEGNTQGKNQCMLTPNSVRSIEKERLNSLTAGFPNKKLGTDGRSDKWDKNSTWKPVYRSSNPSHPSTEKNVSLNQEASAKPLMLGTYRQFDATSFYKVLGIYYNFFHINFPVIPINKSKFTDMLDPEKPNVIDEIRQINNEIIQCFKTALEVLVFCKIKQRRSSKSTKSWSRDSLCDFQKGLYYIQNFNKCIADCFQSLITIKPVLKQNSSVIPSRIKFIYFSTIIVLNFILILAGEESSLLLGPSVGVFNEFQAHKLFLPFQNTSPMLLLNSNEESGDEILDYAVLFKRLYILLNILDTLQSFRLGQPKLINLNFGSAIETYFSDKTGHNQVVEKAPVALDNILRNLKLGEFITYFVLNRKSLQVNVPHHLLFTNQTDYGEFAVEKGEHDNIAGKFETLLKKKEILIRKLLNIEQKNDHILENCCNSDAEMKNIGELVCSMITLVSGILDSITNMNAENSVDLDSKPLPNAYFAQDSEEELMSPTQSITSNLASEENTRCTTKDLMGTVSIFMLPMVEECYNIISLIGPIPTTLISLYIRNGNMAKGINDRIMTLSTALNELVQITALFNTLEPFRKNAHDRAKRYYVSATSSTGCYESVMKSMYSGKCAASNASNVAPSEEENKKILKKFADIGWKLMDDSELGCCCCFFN
# Assay: PBM E-score (8-mer binding enrichment) (E-score (-0.5 to 0.5)); higher = stronger / more preferred TF binding; most listed sequences are background and not binding sites
# Settings: protein concentration: 200 nM; construct: GST-full length
# How it was run: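 E-scores (a modified Wilcoxon-Mann-Whitney statistic) were assigned by the Universal PBM Analysis Suite to every ungapped eight-base word pooled with its reverse complement. The input came from universal all-10-mer Agilent arrays made double-stranded by primer extension and probed with GST-tagged yeast transcription factors at about 100-200 nM. Fluorescent anti-GST detected bound protein, and masliner normalised the scans.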
row,Sequence,PBM E-score
1,CGCCCGTC,-0.0011
2,GTCGGAAA,0.282
3,GTGTACTA,0.181
4,GTAAGGTA,0.127
5,ATTCTACG,-0.0146
6,GCGCCGCC,-0.276
7,ATGCCCTG,-0.0604
8,CAAGCTTG,-0.0645
9,CAGTTCTC,-0.0601
10,GATGCGTA,-0.0578
11,AGAGGAAT,-0.012
12,ACATAATC,0.205
13,CTATCTCA,0.11
14,AGACTTTC,-0.05
15,AAACCCCC,-0.409
16,ATGAGCCG,-0.166
17,GAGTTCCC,-0.201
18,AGAGTATA,0.0377
19,ACCTTCTG,0.194
20,CATATTCG,0.103
21,GCGTATAA,0.0124
22,GTAGACAA,0.08
23,ACATCAAG,0.165
24,CTGATCCA,0.0678
25,ATCTATAG,0.125

row,Sequence,PBM E-score
1,GAGTGCTA,0.0646
2,AACTCCGG,0.109
3,CGCGCTCC,-0.19
4,AGTTTGTC,0.0278
5,AAATCAAA,0.233
6,TGAACCAA,0.273
7,ACGGTATG,-0.0502
8,AGTTACCG,0.0592
9,ATCGCTAC,0.0525
10,AACAAGCC,-0.0425
11,AAAGAGCG,0.0348
12,GCCCCACA,-0.333
13,GCGGGTCC,-0.323
14,CGTCCTTA,-0.116
15,GCTATTCC,-0.0267
16,AATATAGG,0.262
17,CGTGGGAC,-0.188
18,CTGGCTCA,-0.0348
19,TCGAACAA,0.138
20,GAAGGAGC,-0.296
21,ACATCTGG,0.0399
22,CCAGGGCG,-0.297
23,ATGCCTTG,0.0358
24,GAATTGAC,0.00537
25,CTCCACGA,-0.0474

row,Sequence,PBM E-score
1,CACCGGTG,-0.255
2,CGACGGAG,-0.019
3,ATTGATGG,0.213
4,CCGTTCAC,-0.112
5,GAAGGTCA,0.0288
6,CCTACGAA,0.0282
7,ACCTCCTC,-0.169
8,CCGAAAGA,0.0944
9,CTTGTGTA,0.131
10,CCCTTCTC,-0.337
11,GAATCTCC,-0.151
12,CGCATCGC,-0.165
13,ATCCTCCG,-0.173
14,CGACACTC,0.00696
15,GACAATAA,0.186
16,CTAGTAAC,0.0169
17,CAGCGCGG,-0.00239
18,ATCGTCGC,0.0195
19,ACGTACTA,0.217
20,CGATTCTC,-0.0452
21,GAGGGGAA,-0.0397
22,CCTACTCC,-0.0891
23,GACCCGCA,-0.187
24,GCGCTCCA,-0.315
25,GGACTTGA,-0.154

row,Sequence,PBM E-score
1,ACGGGCCC,-0.344
2,CGGACGAA,0.127
3,ATTAAACC,0.187
4,ATTCTTGG,0.098
5,ATCAATGA,0.267
6,AGACCCCT,-0.323
7,GGCCCACC,-0.307
8,CTGAGGTA,-0.0539
9,CACTAAGG,-0.203
10,ACACATAT,0.132
11,GCGTGATA,-0.0494
12,CAATGACC,-0.0669
13,AATAGCCG,-0.0639
14,CATTGTTC,0.31
15,GCTATTGA,0.0859
16,AAAGTGCC,-0.219
17,CACGGATA,0.147
18,ACAGTGCA,0.0582
19,ACTTCATA,0.0836
20,CGAGTTTA,0.00605
21,AACTTTGC,0.0862
22,GTTGCTTA,0.116
23,AACATCCG,0.12
24,GCGTGTTA,-0.0178
25,CCCTAACG,-0.0121

row,Sequence,PBM E-score
1,AAACCGAA,0.0764
2,CCAAATTA,0.269
3,CCACTTTA,0.225
4,CCTACACA,0.0171
5,ACCCATCG,-0.0756
6,ACCATCCG,0.0385
7,ACTTTGCG,-0.0328
8,ATGAGCAG,-0.00353
9,TCAGCTGA,0.203
10,ATGCCGGG,-0.191
11,CGGATGAG,-0.0297
12,AGACAACG,-0.115
13,ACGGTAGA,-0.0598
14,AATTATAC,0.284
15,AAAAGAGA,0.00246
16,CTAAGGCC,-0.193
17,CATGTAAG,-0.0133
18,GCCTCGCA,-0.0398
19,AATCCACT,0.193
20,CCGAGGAA,0.054
21,ACGTGTCT,-0.167
22,AGGATTGG,-0.103
23,CCCAACCG,-0.169
24,CACAAGTA,0.0476
25,AGAAGCAA,0.134

row,Sequence,PBM E-score
1,AGAGATCG,-0.0064
2,AACCGCTC,-0.127
3,ACTTTTGA,0.105
4,ACCATCGC,-0.0324
5,ACAATACG,0.149
6,ACACACTG,-0.092
7,CGACTTCA,0.0259
8,CCAGAGTA,-0.0169
9,CTGCCAGC,-0.0939
10,ACTGCAAG,-0.0597
11,GGAGAGTA,-0.0818
12,CACTTATA,0.176
13,TCTTAGAA,0.254
14,GTGTAAAA,0.112
15,ATTTTAAA,0.248
16,ATGCGGGA,0.0928
17,CTCCTATC,-0.0727
18,AAGTAGGT,-0.13
19,GGTATTGA,0.0704
20,AATACACT,0.18
21,GCCTTTAC,-0.0171
22,GGTCTATA,0.00227
23,AGTGGGCC,-0.405
24,GTTGGGCA,-0.0726
25,CTTGCCAC,-0.0894

row,Sequence,PBM E-score
1,AGTGCTTA,-0.00926
2,ACAAATAG,0.167
3,CCCGTTTA,0.149
4,CACCCCAA,-0.0395
5,CCAGGCAG,-0.203
6,CCCTGCCA,-0.191
7,AAATCGTT,0.148
8,CAGTCAGA,-0.125
9,CCGTATAA,0.151
10,ACAGAGCT,-0.153
11,CCGGGGGC,-0.414
12,GACTATAC,-0.0185
13,ACGTTTTA,0.149
14,TACCTTAA,-0.0152
15,ACAGAGTA,0.0826
16,GGGTACCA,-0.307
17,ATCGCCTA,-0.0686
18,ATCCAGAA,0.197
19,GAGAAATA,0.265
20,AATAAGGC,0.0806
21,ATTAAGAA,0.0816
22,GCATTAGC,-0.0425
